The values that follow come from the GPR68 mutational scans of Howard et al. (2025).

The labels stand for the following.
B1: GPR68, Q15743 (parent)
chain: MGNITADNSSMSCTIDHTIHQTLAPVVYVTVLVVGFPANCLSLYFGYLQIKARNELGVYLCNLTVADLFYICSLPFWLQYVLQHDNWSHGDLSCQVCGILLYENIYISVGFLCCISVDRYLAVAHPFRFHQFRTLKAAVGVSVVIWAKELLTSIYFLMHEEVIEDENQHRVCFEHYPIQAWQRAINYYRFLVGFLFPICLLLASYQGILRAVRRSHGTQKSRKDQIQRLVLSTVVIFLACFLPYHVLLLVRSVWEASCDFAKGVFNAYHFSLLLTSFNCVADPVLYCFVSETTHRDLARLRGACLAFLTCSRTGRAREAYPLGAPEASGKSGAQGEEPELLTKLHPAFQTPNSPGSGGFPTGRLA

The variants in data set [1] derive from B1. The data set is described as follows: cAMP reporter score (Enrich2 score, wild type = 0); higher = more signal; HEK293T, FACS bins.
The variants in data set [2] derive from B1. The data set is described as follows: surface expression score (Enrich2 score, wild type = 0); higher = more signal; HEK293T, FACS bins.

Scores with a large standard error are left out. Two further conditions of the source, in which the scores hardly spread, are not listed. Names with del lack the residues named; names with ins carry added residues between the positions named. For some assays here: The concentration of ogerin is not given here.

Consider A180_W181insG, for which the cAMP reporter score in data set [1] (pH 5.5) is -1.15; in data set [1] (pH 6) it was -0.466; in data set [1] (pH 6.5, modulator: ogerin) it was -2.15. Further, the surface expression score in data set [2] is -0.399.

For A180_Q182del, the cAMP reporter score in data set [1] (pH 5.5) was -0.79; in data set [1] (pH 6), -1.08; in data set [1] (pH 6, modulator: ogerin) it was -1.08; in data set [1] (pH 6.5, modulator: ogerin), -1.08. The surface expression score in data set [2] is -0.859.

As for P177_I178insGS, the cAMP reporter score is -2.17 in data set [1] (pH 5.5); -0.498 in data set [1] (pH 6); -1.56 in data set [1] (pH 6, modulator: ogerin); -1.57 in data set [1] (pH 6.5, modulator: ogerin). Besides, the surface expression score in data set [2] was -1.52.

In the case of P177_I178insGSG, the cAMP reporter score in data set [1] (pH 5.5) was -2.4; in data set [1] (pH 6), -1.16; in data set [1] (pH 6, modulator: ogerin), -2.69; in data set [1] (pH 6.5, modulator: ogerin) it was -0.878. In addition, the surface expression score in data set [2] is -1.69.

P177_I178del: the cAMP reporter score in data set [1] (pH 5.5) was -1.93; in data set [1] (pH 6) it was -0.923; in data set [1] (pH 6, modulator: ogerin), -0.884; in data set [1] (pH 6.5, modulator: ogerin) it was -0.774. Also, the surface expression score in data set [2] was -2.02.

On to I178V, for which the cAMP reporter score in data set [1] (pH 5.5) was -0.485; in data set [1] (pH 6), 0.095; in data set [1] (pH 6, modulator: ogerin), -0.627; in data set [1] (pH 6.5, modulator: ogerin), -0.716. Moreover, in data set [2], the surface expression score was -0.46.

Consider I178C, for which the cAMP reporter score in data set [1] (pH 5.5) is -0.793; in data set [1] (pH 6), -0.411; in data set [1] (pH 6, modulator: ogerin), -1; in data set [1] (pH 6.5, modulator: ogerin), -0.291. Further, the surface expression score in data set [2] was -1.51.

As to I178N, the cAMP reporter score in data set [1] (pH 5.5) is -1.14; in data set [1] (pH 6), -0.814; in data set [1] (pH 6, modulator: ogerin), -0.843; in data set [1] (pH 6.5, modulator: ogerin), 0.472. The surface expression score in data set [2] is -0.955.

On to I178M, for which the cAMP reporter score in data set [1] (pH 5.5) came to 0.631; in data set [1] (pH 6) it was 1.28; in data set [1] (pH 6, modulator: ogerin) it was 0.622; in data set [1] (pH 6.5, modulator: ogerin), 1.84. In addition, in data set [2], the surface expression score amounted to 0.49.

As for I178G, the cAMP reporter score was -1.18 in data set [1] (pH 5.5); -0.823 in data set [1] (pH 6); -0.618 in data set [1] (pH 6, modulator: ogerin); -1.26 in data set [1] (pH 6.5, modulator: ogerin). The surface expression score in data set [2] was -0.847.

As to I178K, the cAMP reporter score in data set [1] (pH 5.5) is -1.26; in data set [1] (pH 6), -1.38; in data set [1] (pH 6.5, modulator: ogerin) it was -0.672. For the same variant, the surface expression score in data set [2] was -0.736.

For the variant I178R, the cAMP reporter score in data set [1] (pH 5.5) is -1.3; in data set [1] (pH 6), -1.53; in data set [1] (pH 6, modulator: ogerin) it was -0.94; in data set [1] (pH 6.5, modulator: ogerin), -1.8. For the same variant, the surface expression score in data set [2] was -1.76.

In the case of I178Y, the cAMP reporter score in data set [1] (pH 5.5) was -0.055; in data set [1] (pH 6), -0.549; in data set [1] (pH 6, modulator: ogerin), -1.36; in data set [1] (pH 6.5, modulator: ogerin), -0.828. The surface expression score in data set [2] was -0.214.

With I178D, the cAMP reporter score is -0.267 in data set [1] (pH 5.5); 0.082 in data set [1] (pH 6); -1.09 in data set [1] (pH 6, modulator: ogerin); -0.859 in data set [1] (pH 6.5, modulator: ogerin). In addition, the surface expression score in data set [2] is -1.09.

On to I178H, for which the cAMP reporter score in data set [1] (pH 5.5) is -1.21; in data set [1] (pH 6) it was -0.744; in data set [1] (pH 6, modulator: ogerin) it was -1.8; in data set [1] (pH 6.5, modulator: ogerin) it was -1.14. Moreover, the surface expression score in data set [2] is -0.821.

As for I178L, the cAMP reporter score in data set [1] (pH 5.5) is -0.005; in data set [1] (pH 6, modulator: ogerin), 1.23; in data set [1] (pH 6.5, modulator: ogerin) it was -0.553. In data set [2], the surface expression score was -0.445.

As to I178P, the cAMP reporter score in data set [1] (pH 5.5) is -0.566; in data set [1] (pH 6) it was -1.04; in data set [1] (pH 6, modulator: ogerin), -0.356; in data set [1] (pH 6.5, modulator: ogerin) it was -0.739. Besides, the surface expression score in data set [2] was -1.16.

For I178W, the cAMP reporter score in data set [1] (pH 5.5) is -1.98; in data set [1] (pH 6, modulator: ogerin), -1.79; in data set [1] (pH 6.5, modulator: ogerin), -0.198. Moreover, the surface expression score in data set [2] was found to be 0.468.

For I178Q, the cAMP reporter score is -0.235 in data set [1] (pH 5.5); -0.926 in data set [1] (pH 6); -0.428 in data set [1] (pH 6, modulator: ogerin); -0.961 in data set [1] (pH 6.5, modulator: ogerin). Moreover, the surface expression score in data set [2] was -0.334.

For the variant I178T, the cAMP reporter score is 0.662 in data set [1] (pH 5.5); 0.279 in data set [1] (pH 6); 0.762 in data set [1] (pH 6, modulator: ogerin); -0.643 in data set [1] (pH 6.5, modulator: ogerin). Also, the surface expression score in data set [2] is 0.201.

As to I178A, the cAMP reporter score was -0.571 in data set [1] (pH 5.5); 1.27 in data set [1] (pH 6); -0.478 in data set [1] (pH 6, modulator: ogerin); -0.933 in data set [1] (pH 6.5, modulator: ogerin). In addition, the surface expression score in data set [2] is -0.491.

For I178S, the cAMP reporter score was -0.514 in data set [1] (pH 5.5); 0.991 in data set [1] (pH 6); -0.75 in data set [1] (pH 6, modulator: ogerin). In addition, the surface expression score in data set [2] was -0.968.

As for I178F, the cAMP reporter score in data set [1] (pH 5.5) is -1.1; in data set [1] (pH 6), -0.3; in data set [1] (pH 6, modulator: ogerin) it was -1.14; in data set [1] (pH 6.5, modulator: ogerin) it was -0.824. The surface expression score in data set [2] was -0.176.

For P177del, the cAMP reporter score was -0.66 in data set [1] (pH 5.5); -1.66 in data set [1] (pH 6); -1.8 in data set [1] (pH 6, modulator: ogerin); -1.67 in data set [1] (pH 6.5, modulator: ogerin). The surface expression score in data set [2] was -2.28.

As for Y176del, the cAMP reporter score in data set [1] (pH 5.5) is -1.79; in data set [1] (pH 6), -1.3; in data set [1] (pH 6, modulator: ogerin), -0.944; in data set [1] (pH 6.5, modulator: ogerin) it was -1.39. For the same variant, the surface expression score in data set [2] was -2.06.

Turning to P177_I178insG, the cAMP reporter score in data set [1] (pH 5.5) is -1.14; in data set [1] (pH 6) it was -0.023; in data set [1] (pH 6, modulator: ogerin), -1.64; in data set [1] (pH 6.5, modulator: ogerin) it was -0.687. In addition, the surface expression score in data set [2] was -0.378.

Regarding I178del, the cAMP reporter score was -1.97 in data set [1] (pH 5.5); -1.51 in data set [1] (pH 6); -1.54 in data set [1] (pH 6, modulator: ogerin); -1.04 in data set [1] (pH 6.5, modulator: ogerin). For the same variant, in data set [2], the surface expression score was -2.31.

For I178_Q179insG, the cAMP reporter score in data set [1] (pH 5.5) is -1.5; in data set [1] (pH 6) it was -1.65; in data set [1] (pH 6, modulator: ogerin), -2.29; in data set [1] (pH 6.5, modulator: ogerin) it was -1.36. Further, the surface expression score in data set [2] was -2.64.

As to I178_Q179del, the cAMP reporter score was -1.2 in data set [1] (pH 5.5); -0.69 in data set [1] (pH 6); -1.74 in data set [1] (pH 6, modulator: ogerin); -1.09 in data set [1] (pH 6.5, modulator: ogerin). In addition, the surface expression score in data set [2] is -2.08.

For the variant A180K, the cAMP reporter score in data set [1] (pH 5.5) is 0.805; in data set [1] (pH 6), -0.493; in data set [1] (pH 6, modulator: ogerin) it was 0.615; in data set [1] (pH 6.5, modulator: ogerin), 0.719. Besides, the surface expression score in data set [2] turned out to be 0.771.

Turning to A180P, the cAMP reporter score in data set [1] (pH 5.5) is 0.626; in data set [1] (pH 6, modulator: ogerin), 0.706; in data set [1] (pH 6.5, modulator: ogerin), 0.605. Besides, in data set [2], the surface expression score is 0.679.
